Laboratory results published in the supplement of paper PMC9446081.
Screen size: about 39,000 compounds; about 220 (0.56%) showed activity. Some of the results follow.
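Also: static incubation at 37 °C against the wild-type strain, values averaged over two biological replicates.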

Each compound was assayed on Escherichia coli K-12 BW25113 (assay: relative growth (OD600 normalised to plate interquartile mean) (fraction); higher = less growth inhibition, active = 0.2 or less). Details: 50 µM; LB; incubation time: overnight (16-24 h).
With `C[C@@H]1CN([C@@H](C)CO)C(=O)c2cc(NC(=O)c3ccncc3)ccc2O[C@@H](C)CCCCO[C@@H]1CN(C)C(=O)Nc1ccccc1` the relative growth was inactive: 0.976. With `Cc1cc(C(C)(C)CC(C)(C)C)ccc1OCCOCC[N+](C)(C)Cc1ccccc1.[Cl-]` the relative growth was active: 0.0463. `CN(C)CC(=O)N[C@@H]1CC[C@H](CCNC(=O)C2CC2)O[C@H]1CO` was tested, and the relative growth was inactive: 0.995. With `CN(C)CC(=O)N[C@H]1CC[C@H](CC(=O)O)O[C@H]1CO` the relative growth was inactive: 1.03. For `O=C(C[C@@H]1CC[C@H](NC(=O)CN2CCOCC2)[C@@H](CO)O1)NCCc1ccccc1`, the relative growth was inactive: 1. With `Cc1noc(C)c1NC(=O)Nc1ccc2c(c1)C(=O)N([C@H](C)CO)C[C@@H](C)[C@H](CN(C)CC1CCCCC1)OCCCC[C@@H](C)O2` the relative growth was inactive: 0.96. `C[C@@H]1CCCCO[C@@H](CN(C)C(=O)Nc2ccc(C(F)(F)F)cc2)[C@H](C)CN([C@@H](C)CO)C(=O)c2cc(NC(=O)Nc3ccc(F)cc3)ccc2O1` was tested, and the relative growth was inactive: 1.03. `C[C@@H]1CCCCO[C@H](CN(C)C(=O)C2CCCCC2)[C@H](C)CN([C@H](C)CO)C(=O)c2cc(NC(=O)c3ccncc3)ccc2O1` was tested, and the relative growth was inactive: 1.01. `Cc1noc(C)c1NC(=O)N(C)C[C@@H]1Oc2c(NS(=O)(=O)c3ccccc3)cccc2C(=O)N([C@@H](C)CO)C[C@H]1C` was tested, and the relative growth was inactive: 1. `C[C@H]1CN([C@@H](C)CO)C(=O)c2cc(NS(=O)(=O)c3ccc(F)cc3)ccc2O[C@@H]1CN(C)S(C)(=O)=O` was tested, and the relative growth was inactive: 1.02. `O=C1OC2(c3ccccc31)c1cc(I)c(O)c(I)c1Oc1c2cc(I)c(O)c1I` was tested, and the relative growth was inactive: 1.03. With `COc1ccc2cc(S(=O)(=O)N[C@H](CC(=O)N[C@H](Cc3ccc(CN4[C@H](C)CCC[C@@H]4C)cc3)C(=O)N(C)C(C)C)c3ccc4c(c3)OCO4)ccc2c1` the relative growth was inactive: 1.02. `C[C@@H]1CCCCO[C@@H](CN(C)C(=O)C2CCCCC2)[C@H](C)CN([C@H](C)CO)C(=O)c2cc(NC(=O)NC3CCCCC3)ccc2O1` was tested, and the relative growth was inactive: 1.04. With `C[C@@H]1CN([C@@H](C)CO)C(=O)c2cccc(NC(=O)c3nc4ccccc4s3)c2O[C@@H]1CN(C)Cc1ccc(C(F)(F)F)cc1` the relative growth was inactive: 1.02. `O=C(C[C@H]1C[C@H]2c3cc(NS(=O)(=O)c4ccc(F)cc4)ccc3O[C@H]2[C@H](CO)O1)NCc1cccnc1` was tested, and the relative growth was inactive: 0.995. `C[C@@H]1CN([C@@H](C)CO)C(=O)c2cc(NC(=O)Nc3ccc(F)cc3)ccc2O[C@H]1CN(C)CC1CCCCC1` was tested, and the relative growth was inactive: 1. For `C[C@@H]1CN([C@@H](C)CO)C(=O)CCCn2nncc2CO[C@@H]1CN(C)C(=O)C1CC1`, the relative growth was inactive: 1.
